Results reported in PubChem BioAssay AID651820 (National Center for Advancing Translational Sciences (NCATS), 2012).
Where “and” joins values, the source holds several entries; their conditions need not be identical. Equal values may be shown once. Screen size: about 340,000 compounds; about 12,000 (3.5%) were called active. Inconclusive means that the source gave no clear call. Such entries were picked first, then a sample of the others. The call rests on the fitted dose curve; in most records, active means well fitted inhibition curve with a large enough effect; inconclusive means small, poorly fitted or top-dose-only effect, or another doubt; inactive means no such curve, though single readings can be large or run the other way. A potency beside an inconclusive call is a rough fit, not a confirmed value.

test: qHTS Assay for Inhibitors of Hepatitis C Virus (HCV); conditions: Huh7.5.1 HCVcc-Cre (HCVcc is cell-culture hepatitis C virus) infection, luciferase reporter, 44 h; series mostly up to 41.8 µM
Procedure, shortened: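 Whole-lifecycle infectious HCVcc-Cre system; cells 1,000/well, compound then virus (~0.5 moi) added 4 h after plating, 44 h culture. Luciferase read 15 sec following 15 min substrate incubation, room temp.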
Potency means the concentration at half of the fitted maximal effect; tags describe the fitted curve by direction and shape.

| SMILES | Potency |
| --- | --- |
| Fc1ccc2cc(-c3ccccc3F)ncc2c1 | inconclusive: 5.62 µM [inhibitor, single point] |
| CCOC(=O)N1CCN(C(=O)c2cc3c(=O)[nH]c4ccccc4c3s2)CC1 | inconclusive: 31.6 µM [inhibitor, single point] |
| C=C(C)CSc1nc2sc3c(c2c(=O)n1-c1ccc(OC)cc1)CCN(C)C3 | inconclusive: 22.4 µM [inhibitor, partial curve] |
| CC(C)Cn1c(N)c(C(=O)COC(=O)c2ccccc2Cl)c(=O)n(C)c1=O | inconclusive: 1.58 µM [inhibitor, partial curve] |
| COCc1cc(N2CCOCC2)nc(-c2ccccc2)n1 | inconclusive: 12.6 µM [inhibitor, single point] |
| COc1cc(NC(=O)C(Cc2ccccc2)n2cccc2)cc(OC)c1 (centres undefined) | inconclusive: 31.6 µM [inhibitor, single point] |
| Cc1cccc(C)c1NC(=O)CCCSc1nnc(-c2ccco2)o1 | inactive |
| O=C1CCC(c2ccc3c(c2)CCC3)=NN1 | inconclusive: 31.6 µM [inhibitor, single point] |
| c1ccc2c(CSCc3nc4ccccc4[nH]3)cccc2c1 | inconclusive: 14.1 µM [inhibitor, single point] |
| CCc1nc(N2CCCC(C)C2)c2oc3ccccc3c2n1 (centres undefined) | inconclusive: 31.6 µM [inhibitor, single point] |
| Cc1ccc(S(=O)(=O)CCc2nnc(NC(=O)CCl)s2)cc1C | inconclusive: 14.1 µM [inhibitor, single point] |
| CCOC(=O)N1CCN(C(=O)c2ccc3c(c2)N(Cc2ccc(C)cc2)CCS3)CC1 | active: 12.6 µM |
| COc1ccc(NS(=O)(=O)c2ccc(C)c(C(=O)N(C)CCc3ccc(OC)c(OC)c3)c2)cc1 | inconclusive: 10 µM [inhibitor, partial curve, poor fit] |
| Cc1cccc2sc(N(CCN(C)C)C(=O)/C=C/c3cccs3)nc12 | inconclusive: 5.62 µM [inhibitor, partial curve] |
| CC(C)(C)OC(=O)N1CCC(C(=O)Nc2ccc(C(=O)NCCc3ccccc3)cc2)CC1 | inconclusive: 5.62 µM [inhibitor, single point] |
| S=c1[nH]nc(Cc2ccc(Br)cc2)n1/N=C/c1ccc(Cl)cc1 | inactive |
| O=C1NC(=O)N(c2ccccc2)C(=O)/C1=C\C=C\c1ccccc1 | inconclusive: 31.6 µM [inhibitor, single point] |
| CCn1c(CN2CCN(c3ccc(OC)cc3)CC2)nc2cc(S(=O)(=O)N(C)C)ccc21 | inconclusive: 8.91 µM [inhibitor, single point] |
| CCCCNc1cc(C)nc(NCc2ccccc2)n1 | inconclusive: 5.62 µM [inhibitor, partial curve] |
| Cc1cccc(NC(=S)Nc2ccc(Oc3ccccc3)cc2)n1 | inconclusive: 25.1 µM [inhibitor, single point] |
| CCN(Cc1ccccc1)c1ccc(/C=N/N=C(N)N)cc1 | inconclusive: 12.6 µM [inhibitor, single point] |
| O=C(CNCc1ccccc1Cl)Nc1ccc(C(=O)N2CCCCC2)cc1 | inactive |
| O=C(CN1CCN(C/C=C/c2ccccc2)CC1)NC(=O)NC1CCCCC1 | inconclusive: 22.4 µM [inhibitor, single point] |

| SMILES | Potency |
| --- | --- |
| CCOC(=O)N1CCN(C(=O)CCc2cc(OC)c(OC)c(OC)c2)CC1 | inactive |
| COCCOc1cc(NC(=O)c2cccc(OC)c2)c(Cl)cc1Cl | inconclusive: 31.6 µM [inhibitor, single point] |
| COc1ccc(-c2nn(-c3ccccc3)cc2/C=C/C(=O)OCC(=O)Nc2ccccc2C#N)cc1 | inconclusive: 31.6 µM [inhibitor, single point] |
| Cc1ccc(C(C(=O)NCC2CCCO2)N(C(=O)c2snc(C(N)=O)c2N)c2ccc3c(c2)OCCO3)cc1 (centres undefined) | inconclusive: 31.6 µM [inhibitor, single point] |
| CCc1nn2cc(C(=O)c3ccccc3O)cnc2c1-c1ccc(F)cc1 | inconclusive: 7.08 µM [inhibitor, partial curve] |
| CC(C)(C)c1ccc(S(=O)(=O)N2CCC(CO)(CC3CCCCO3)CC2)cc1 (centres undefined) | inactive |
| O=C1CCCN1c1ccc(S(=O)(=O)Nc2ccc3c(c2)OCCO3)cc1 | inconclusive: 10 µM [inhibitor, partial curve] and inconclusive: 3.16 µM [inhibitor, full curve, poor fit] |
| O=C(CN1C(=O)NC2(CCCCC2)C1=O)Nc1cc(C(F)(F)F)ccc1N1CCCCC1 | inactive |
| O=c1cc(OCc2ccccc2)cc[nH]1 | inactive |
| O=C(COC(=O)c1ccccc1SCC(=O)N1CCCC1)Nc1ccccc1OC(F)F | inconclusive: 31.6 µM [inhibitor, single point] |
| Cc1ccc(-c2cc(C(F)F)n3ncc(C(=O)N4CCN(c5cccc(C)c5C)CC4)c3n2)cc1 | active: 31.6 µM |
| O=C(Cc1csc(Nc2nc(=S)[nH]c3ccccc23)n1)NCCCN1CCN(c2ccccc2F)CC1 | active: 3.98 µM |
| OC(CN1CCN(Cc2ccccc2)CC1)c1ccc(Br)cc1 (centres undefined) | inconclusive: 1.41 µM [inhibitor, partial curve, poor fit] |
| Cc1ccc(S(=O)(=O)N(CC(=O)NCCC2=CCCCC2)Cc2ccccc2)cc1 | inconclusive: 22.4 µM [inhibitor, single point] |
| O=C(c1ccc2c(=O)n(Cc3ccccc3Cl)c(=S)[nH]c2c1)N1CCCC1 | inactive |
| COc1ccc(Br)cc1CN1CCN(Cc2c[nH]c3ccccc23)CC1 | inconclusive: 31.6 µM [inhibitor, single point] |
| CCCOc1ccc(C2C3=C(CCCC3=O)N(CC(=O)O)C3=C2C(=O)CCC3)cc1OCC | inactive |
| COC(=O)c1ccccc1NC(=O)c1cc2ccccc2o1 | inconclusive: 10 µM [inhibitor, partial curve] |
| O=C(Nc1ccccc1)c1ccc(CN2CCc3ccccc3C2)cc1 | inconclusive: 3.98 µM [inhibitor, full curve] |
| Cc1cc(C[n+]2ccccc2)c2nsnc2c1 | inconclusive: 3.55 µM [inhibitor, full curve] |
| N#Cc1c(NC(=O)c2ccc([N+](=O)[O-])o2)sc2c1CCC2 | inactive |
| CCC(=O)Nc1ccc2nc(C)n(Cc3ccccc3Cl)c(=O)c2c1 | inconclusive: 7.94 µM [inhibitor, partial curve] |
| O=C(Nc1ccc(O)cc1)c1ccc(C(=O)c2ccccc2)o1 | inconclusive: 14.1 µM [inhibitor, single point] |

| SMILES | Potency |
| --- | --- |
| Cc1ccc(C)c(NS(=O)(=O)c2cc(C(=O)NCc3ccco3)ccc2C)c1 | inconclusive: 5.01 µM [inhibitor, full curve, poor fit] |
| COc1ccc(NC(=O)C2CCCN2c2nn3c(=O)cc(C)nc3s2)cc1 (centres undefined) | inactive |
| CCOc1ccc2nc(NC(=O)Cn3[nH]c(=O)c4ccccc4c3=O)sc2c1 | inactive |
| CC1CCN(c2ncnc3nc[nH]c23)CC1 | inconclusive: 12.6 µM [inhibitor, partial curve] |
| Cc1ccc2c(c1)nnn2C1CCN(S(=O)(=O)c2ccc(C(=O)N3C(C)CCCC3C)cc2)CC1 (centres undefined) | active: 6.31 µM |
| O=C(c1cc(-c2cccs2)on1)N1CCN(C(c2ccccc2)c2ccccc2)CC1 | active: 2.82 µM |
| COc1ccc(NC(=O)CCS(=O)(=O)c2ccccc2Cl)cc1S(=O)(=O)Nc1ccc(Cl)cc1 | active: 12.6 µM |
| COC(=O)c1c(CSc2ccc(Cl)cc2)noc1C(=O)NCc1ccco1 | inactive |
| CCOC(=O)C1=C(C)NC(C)=C(C(=O)OCC)C1c1ccc(Br)o1 | inconclusive: 3.55 µM [inhibitor, full curve] |
| CC(=O)Nc1cccc(-c2csc(NCc3ccccc3)n2)c1 | inactive |
| CCNc1nc(NCC)nc(N(C#N)CCOc2ccccc2)n1 | inactive |
| COc1cc(/C=C/C(=O)c2ccc(C)cc2)ccc1OCC#N | inconclusive: 31.6 µM [inhibitor, single point] |
| Cn1cc(S(=O)(=O)N2CCc3ccccc32)cc1C(=O)NC(C)(C)C | inconclusive: 2.51 µM [inhibitor, full curve] |
| O=C(CSc1nncc2ccccc12)N1CCCCC1 | inactive |
| CC(C)CCNC(=O)c1ccc2c(c1)ncn2C1CCCC1 | inactive |
| O=c1n(S(=O)(=O)c2cccc3cccnc23)c2ccccc2n1S(=O)(=O)c1cccc2cccnc12 | inconclusive: 20 µM [inhibitor, single point] |
| Cc1cc(NS(=O)(=O)c2ccc(NC(=O)c3ccc([N+](=O)[O-])s3)cc2)nc(C)n1 | inconclusive: 2.51 µM [inhibitor, single point] |
| COc1ccc(OC)c(CCNC(=O)CCn2nc(C)c3c(C)n(-c4ccccc4)nc3c2=O)c1 | inactive |
| O=C(NNC(=O)c1ccccc1O)c1ccc(S(=O)(=O)Nc2ccccc2F)cc1 | active: 15.8 µM |
| COCC(=O)Nc1ccc(N2CCOCC2)c(S(=O)(=O)Nc2ccccc2OC)c1 | inconclusive: 22.4 µM [inhibitor, single point] |
| CCN(C(=O)CSc1nnnn1C)C1CCS(=O)(=O)C1 (centres undefined) | inconclusive: 31.6 µM [inhibitor, single point] |
| Cc1ccc(CCNC(=O)C2CCCN(S(=O)(=O)c3c(C)noc3C)C2)cc1 (centres undefined) | inconclusive: 7.94 µM [inhibitor, partial curve, poor fit] |
| Cc1[nH]c2ccccc2c1C(=O)COC(=O)C1CC(=O)N(Cc2ccccc2)C1 (centres undefined) | inconclusive: 31.6 µM [inhibitor, single point] |
